This is one part of the list.
The sequences below were run against T1, OsWOX13 (Oryza sativa, UniProt Q5QMM3 1-267) (assay: protein-binding microarray (RPBM); PBS, 2% BSA, 51.3 ng/ul salmon testes DNA, 50 uM zinc acetate, 200 nM TF, 25 C, 1 h; high values mean tight binding). Details: protein: recombinant; tags: N-terminal polyhistidine and DsRed monomer fusion (pET32a); label: CyDye5-dUTP incorporated in the synthesized complementary strand; 3' TTTTT single-stranded linker to array surface; dsDNA, one strand shown.
T1 sequence: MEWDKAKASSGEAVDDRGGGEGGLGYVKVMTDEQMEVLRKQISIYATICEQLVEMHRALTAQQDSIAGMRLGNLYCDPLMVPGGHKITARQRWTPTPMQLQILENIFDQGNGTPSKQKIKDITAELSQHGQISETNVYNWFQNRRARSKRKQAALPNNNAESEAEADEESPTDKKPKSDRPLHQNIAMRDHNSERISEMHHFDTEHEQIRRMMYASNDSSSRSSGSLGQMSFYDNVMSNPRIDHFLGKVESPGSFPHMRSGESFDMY
Summary of the method: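 Binding signal here means per-feature fluorescence intensity in arbitrary units. The values were read on an Axon 4000B scanner after a custom Agilent array, double-stranded by primer extension with Cy5-dUTP, was incubated with 200 nM protein at 25 °C for 1 h in PBS with 2% BSA, salmon testes DNA and 50 µM zinc acetate, then washed. The proteins were transcription factors with an N-terminal polyhistidine tag and DsRed, expressed in E. coli BL21-CodonPlus and purified on Ni–NTA.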

Row | Sequence | binding signal
1 | CCTAATTTCTAACATTATATTGTTGCTTAGTGTACTAACTCGGAGTCACCTAGTGCAG | 18700 fluorescence intensity (a.u.)
2 | CTAAATTATTTCCTACTAGTACCTTCTAGAGAAACCCCAGCGGAGTCACCTAGTGCAG | 16900 fluorescence intensity (a.u.)
3 | TGAAATAATTAATTAAATTATCATTAAGCCCCAAACCGAGCGGAGTCACCTAGTGCAG | 57300 fluorescence intensity (a.u.)
4 | AAACTCAGTGACTGATGATAATCTGTTTGCAATTGAGTTGCGGAGTCACCTAGTGCAG | 6210 fluorescence intensity (a.u.)
5 | CAATAATTATGGTCCCCTCTCCTCGCCCAATCCCATCTCGCGGAGTCACCTAGTGCAG | 33100 fluorescence intensity (a.u.)
6 | AATAACACAATTGTTGATAATTGTTGGATTACTTTGTGAGCGGAGTCACCTAGTGCAG | 16000 fluorescence intensity (a.u.)
7 | GCTAATACTTAATTAATCATGCGCTAATGGACTGCTCTAGCGGAGTCACCTAGTGCAG | 38000 fluorescence intensity (a.u.)
8 | CTGATAGATATAGATGGGCATGATCCACTGTGCAATTGTGCGGAGTCACCTAGTGCAG | 18100 fluorescence intensity (a.u.)
9 | GAGTACATCAGCGATAATTTTGGTCTTACTAAAATTATGTCGGAGTCACCTAGTGCAG | 3400 fluorescence intensity (a.u.)
10 | TAGTAATCATTTGCATTCTATTAGCTGTAAAATAACATGACGGAGTCACCTAGTGCAG | 4460 fluorescence intensity (a.u.)
11 | GTACACTGTTCCCAATAATTAGTGAAAACTGTTGATGCCTCGGAGTCACCTAGTGCAG | 5320 fluorescence intensity (a.u.)
12 | TATATATATATATATATATATATATCTGATGCTCTCTTGCCGGAGTCACCTAGTGCAG | 32000 fluorescence intensity (a.u.)
13 | GTTTAGCAAATCCAGCACCCATTATACAGACTTTCTATGCCGGAGTCACCTAGTGCAG | 65500 fluorescence intensity (a.u.)
14 | GTGCTTCTTTTGTTAATGATGATTAGTTCATACAGTATGACGGAGTCACCTAGTGCAG | 11200 fluorescence intensity (a.u.)
15 | TTGACAGCAAATCGAGGAAATATGAATACGAAAGTAAACACGGAGTCACCTAGTGCAG | 4490 fluorescence intensity (a.u.)
16 | TCTTGATTGCTCTTGAGCCCGCATTTCTTCCCCTTCTTTACGGAGTCACCTAGTGCAG | 25900 fluorescence intensity (a.u.)
17 | ATTAGTTTGAGTAATTAGCTGCAATACATTATGACATATACGGAGTCACCTAGTGCAG | 3740 fluorescence intensity (a.u.)
18 | AGAACAGTTGATTTATTATGCACTAGTATAAATTCCAAACCGGAGTCACCTAGTGCAG | 11200 fluorescence intensity (a.u.)
19 | GTACAACAATTATAAAATTAAAATTGCATTTACCCGTTGCCGGAGTCACCTAGTGCAG | 9520 fluorescence intensity (a.u.)
20 | ATAGATTTTCAGTAACAGGGTGTAATAGCCACCGCCATAACGGAGTCACCTAGTGCAG | 6130 fluorescence intensity (a.u.)
21 | TGTAATTGGCATCTTGTATGCTTGATTTCCTGTGCTATCACGGAGTCACCTAGTGCAG | 32700 fluorescence intensity (a.u.)
22 | CCAAATGATTTCACTTGAAGATAAATGAATTCATTGTATGCGGAGTCACCTAGTGCAG | 10900 fluorescence intensity (a.u.)
23 | GCCCAATTAAGACTGTTTCAGTACATTAATCACCAAAGAACGGAGTCACCTAGTGCAG | 10700 fluorescence intensity (a.u.)
24 | TGGTATAAATTAAATCGAGATATATTATATTATTATATCTCGGAGTCACCTAGTGCAG | 6020 fluorescence intensity (a.u.)
25 | GCCCATCAGTCACCGCCGGAATTAAATCCCAGCGAATCCCCGGAGTCACCTAGTGCAG | 4000 fluorescence intensity (a.u.)
26 | ATCACATAAAATTCCAGGGTTAATTGGATCCATGCTACTGCGGAGTCACCTAGTGCAG | 8150 fluorescence intensity (a.u.)
27 | AACTTGATAGAAACGCCTGTGCTTTCTTGCTTCTATTCTGCGGAGTCACCTAGTGCAG | 9240 fluorescence intensity (a.u.)

Row | Sequence | binding signal
28 | GGAAAATTTGCTTGTCCTAAATCTCGAGAATTAACAATAGCGGAGTCACCTAGTGCAG | 3480 fluorescence intensity (a.u.)
29 | TTAAATAACTTATAATTATAATATGAAATGGACGGAATATCGGAGTCACCTAGTGCAG | 29200 fluorescence intensity (a.u.)
30 | GGTTTAATCATTGACAAAATTAAACTGACTAGGAATGAAACGGAGTCACCTAGTGCAG | 31500 fluorescence intensity (a.u.)
31 | CATGGATAATTTGTTTTGGAGTGACACACTGACACTGATGCGGAGTCACCTAGTGCAG | 9780 fluorescence intensity (a.u.)
32 | CGAAGATTAATCTATCCTTCAGTATCTTTATATATACCGACGGAGTCACCTAGTGCAG | 7170 fluorescence intensity (a.u.)
33 | GATAATAATGTATGCAAATTGGAAAATTATAGAGCTACAGCGGAGTCACCTAGTGCAG | 12700 fluorescence intensity (a.u.)
34 | ACGTGTGATTAATTGAGTTTTAATTATTATAAACTTAAAACGGAGTCACCTAGTGCAG | 27900 fluorescence intensity (a.u.)
35 | CTTGTCTGTCACCAGTTCATCACGCGATGTCGTCATAGCTCGGAGTCACCTAGTGCAG | 6790 fluorescence intensity (a.u.)
36 | TGATTAGATTGGGTTTGGTTTAGTTTAGTTTAGCCTTTAACGGAGTCACCTAGTGCAG | 5980 fluorescence intensity (a.u.)
37 | AATTTTGATTAACATATCGCAGTTGGGGTGATCACGACTGCGGAGTCACCTAGTGCAG | 29700 fluorescence intensity (a.u.)
38 | GTAGGAAAATTTTGATGTGATGGAAAAGTTGAAAGTTTGACGGAGTCACCTAGTGCAG | 7280 fluorescence intensity (a.u.)
39 | ACCTAATGACGATGACTAATACGCAATCCTTTCAGAGATACGGAGTCACCTAGTGCAG | 10400 fluorescence intensity (a.u.)
40 | CTTTTGACATTATATTAGACAGATGGTAATCAAATTTAACCGGAGTCACCTAGTGCAG | 10400 fluorescence intensity (a.u.)
41 | GAAAGATTATGTAACAAGATTGTACTGTCATGATGACATGCGGAGTCACCTAGTGCAG | 10200 fluorescence intensity (a.u.)
42 | TGAAAACCATTTAAAATTTCAATCAAAATCTGTTTTCGCTCGGAGTCACCTAGTGCAG | 11300 fluorescence intensity (a.u.)
43 | ATAGAGTAAATGACGGAATTAGATGATCACAACTTGCTGTCGGAGTCACCTAGTGCAG | 11200 fluorescence intensity (a.u.)
44 | AATAAATCTGATTGATGTTTTCCAGAATGCATTTAGCAATCGGAGTCACCTAGTGCAG | 25200 fluorescence intensity (a.u.)
45 | ATCTCCAAATACCAATCTAATTTGTTGTCCAGAATTTAATCGGAGTCACCTAGTGCAG | 6980 fluorescence intensity (a.u.)
46 | AATAATAGACAGTGACTCTGTTTGGCGTACGCACAGACGACGGAGTCACCTAGTGCAG | 25700 fluorescence intensity (a.u.)
47 | TAATAATTTAATGAAGAAGTGATCATAGTTAATGGCCTACCGGAGTCACCTAGTGCAG | 16100 fluorescence intensity (a.u.)
48 | CCATCAATTGGGTCAATTTCTTGTTTATTCGTGCTAATAGCGGAGTCACCTAGTGCAG | 5520 fluorescence intensity (a.u.)
49 | GATAGATTAATATATGATATATCTTTTCACAAACATACAACGGAGTCACCTAGTGCAG | 10500 fluorescence intensity (a.u.)
50 | CTCTCCATCAGTGCCCTGCTTAATTGGTAGCTCAGGCAAACGGAGTCACCTAGTGCAG | 18700 fluorescence intensity (a.u.)
51 | ATGATTAAATAGGAGTGTTAAATGTCAGAAATACTTGTCACGGAGTCACCTAGTGCAG | 24400 fluorescence intensity (a.u.)
52 | CTACGTTTAATATTTATAATTAGTGTATAAATATTCGATGCGGAGTCACCTAGTGCAG | 6900 fluorescence intensity (a.u.)
53 | CCCCTTTGTTGTGATTGAATCTGTGATGAATCGGTTGCCCCGGAGTCACCTAGTGCAG | 30100 fluorescence intensity (a.u.)
54 | TCTAATGATAAAATAAATTACAGATTCCGCCTGTAAACTGCGGAGTCACCTAGTGCAG | 24400 fluorescence intensity (a.u.)
